Experimental data published in PubChem BioAssay AID1346428 (National Center for Advancing Translational Sciences (NCATS), 2018).
The whole screen tested about 48,000 compounds, of which about 1,200 (2.5%) were called active. Inconclusive results (about 2%) are left out.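 How the source made its calls: active means activation of at least 60% and not above a set upper limit (about 1 call in 100 departs from these limits); inconclusive means activation of 40% to 60%, or above that upper limit; inactive means activation under 40%.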 This is one part of the list.

biological target: Probable G-protein coupled receptor 32 (Homo sapiens) (UniProt O75388); test: qHTS for Agonists of Human Resolvin D1 Receptor DRV1; details: CHO-K1 GPR32 beta-arrestin PathHunter luminescence, 90 min; at 76.9 µM; stronger effect = higher value; zero percent set by DMSO-only wells; further: 0% is about no effect
Summary of the method: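 Agonism was scored as beta-arrestin recruitment to ProLink-fused GPR32 in stably transfected CHO-K1 cells, giving a chemiluminescent beta-Gal signal; compounds were incubated 90 min at 37 °C.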

Sequence of UniProt O75388 (O75388 whole entry, looked up, the tested form may be a part): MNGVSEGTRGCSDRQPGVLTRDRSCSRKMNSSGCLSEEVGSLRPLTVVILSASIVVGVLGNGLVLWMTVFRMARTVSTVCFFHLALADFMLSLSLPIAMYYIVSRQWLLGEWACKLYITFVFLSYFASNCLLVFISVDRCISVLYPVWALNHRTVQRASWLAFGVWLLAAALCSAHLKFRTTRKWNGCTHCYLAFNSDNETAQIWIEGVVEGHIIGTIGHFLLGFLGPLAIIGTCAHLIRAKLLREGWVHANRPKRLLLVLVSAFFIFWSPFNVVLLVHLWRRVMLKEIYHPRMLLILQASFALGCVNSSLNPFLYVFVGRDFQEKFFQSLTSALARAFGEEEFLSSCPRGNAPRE

activation, inactive:
CSc1ccccc1NC(=O)CCS(=O)(=O)c1nc(-c2cccs2)cc(C(F)(F)F)n1 -10.8%
CCN(CC)CCOC(=O)c1ccc(NC(=O)CCn2c(=O)oc3ccccc32)cc1 11.1%
N#Cc1ccccc1NC(=O)C(=O)NCC(c1cccnc1)N1CCc2ccccc2C1 (configuration not stated) -18.8%
CN1[C@@H]2CC[C@H]1CC(OC(=O)c1c[nH]c3ccccc13)C2 (some centres not stated) -18.8%
CCCCN(C)c1ncnc2c1cnn2-c1cccc(Cl)c1 -9.01%
COc1ccc(OC)c(CCNC(=O)C(C)n2nc(C)c3c(C)n(-c4ccc(C)cc4)nc3c2=O)c1 (configuration not stated) 8.51%
CCOc1ccccc1NC(=O)C1CCCN(S(=O)(=O)c2ccc3c(c2)CCCN3C(C)=O)C1 (configuration not stated) 0.717%
CCC(=O)N1CCc2cc(S(=O)(=O)NCCC(=O)Nc3cccc(C)c3C)ccc21 -2.73%
Cc1cc(SCC(=O)NCc2ccccc2)nc(=O)[nH]1 -7.64%
COc1cccc(CNc2ccc3c(c2)ncn3C)c1OC 11.7%
O=C(NCc1ccccc1Br)c1ccc(-n2cnc3cccnc32)cc1 -22.7%
COc1ccc(N(CC(=O)Nc2ccc(Cl)cc2C)S(=O)(=O)c2ccccc2)c(OC)c1 -8.03%
COc1cc(-c2nnc(SCC(=O)N3CCCc4ccccc43)o2)cc(OC)c1OC 7.43%
CCc1ccc(S(=O)(=O)c2nnn3c2nc(Nc2cccc(C)c2C)c2sccc23)cc1 -5.55%
CCOc1ccc(C2C(=O)N(C3CCCCCC3)CC(=O)N2Cc2ccc(C)cc2)cc1OC (configuration not stated) -42.4%
COc1ccc(CCNC(=O)c2cc3c(=O)n4cccc(C)c4nc3n2C)cc1 -14.9%
Cc1ccc(-c2csc(-c3c(N)c(C(=O)c4ccc5c(c4)OCO5)n4ccccc34)n2)cc1C 1.06%
Cc1cccc(N(CC(=O)NCCc2ccccc2)S(=O)(=O)c2ccccc2)c1C 1.24%
COc1ccc(C(=O)c2ccccc2)c(O)c1 0.233%
COc1ccc2c(C)c(CCC(=O)NCc3cccc(Cl)c3)c(=O)oc2c1 0.14%
Cc1cccc(CSCCNC(=O)C2CCN(S(=O)(=O)Cc3ccccc3)CC2)c1 -0.039%
CCC(CC)C(=O)Nc1nnc(S(=O)(=O)N(C)c2cc(C)cc(C)c2)s1 -2.94%
COc1c(N2C[C@@H]3CCCN[C@@H]3C2)c(F)cc2c(=O)c(C(=O)O)cn(C3CC3)c12 -34.3%
COc1ccc(NC(=O)CC2Oc3ccc(C)cc3NC2=O)cc1Cl (configuration not stated) 2.78%
Cc1cc(C)cc(-n2ccn(CC(=O)NCCc3ccccc3)c(=O)c2=O)c1 -10.3%
COc1cc2c(cc1OC)C(COc1ccc3c(C)cc(=O)oc3c1)N(C(=O)Cc1ccc(F)cc1)CC2 (configuration not stated) -1.76%
CCOc1ccc(N(CC(=O)NCc2ccc(OC)cc2)S(=O)(=O)c2c(C)[nH]c(=O)[nH]c2=O)cc1 -8.99%
CCOC(=O)c1c(NC(C)=O)c2c3c(sc2n1Cc1c(C)cc(C)cc1C)CCCC3 -27.2%
COc1ccc(Cn2ccnc2SCC(=O)Nc2ccc3c(c2)OCCO3)cc1 -12.4%
Cc1ccc2c(c1)N(CC(=O)Nc1ccccc1C(F)(F)F)C(=O)c1cccnc1O2 -24.2%
COc1cccc(C(=O)N(Cc2cccc(F)c2)C2CCS(=O)(=O)C2)c1 (configuration not stated) -4.7%
Cc1c(Cl)cccc1NC(=O)c1oc2ccc(S(=O)(=O)N3CCCCCC3)cc2c1C -4.94%
COc1cccc(OC)c1C(=O)Nc1ccc(-c2nc3ncccc3o2)cc1 10.2%
O=C(Nc1cccc(F)c1)c1ccc2oc(=O)n(Cc3ccccc3)c2c1 18.7%
CCOC(=O)c1cc2c(=O)n3ccccc3nc2n(Cc2ccco2)c1=NC(=O)c1ccc(C(C)(C)C)cc1 -15%
COc1ccc(CCCc2nnc(SCC(=O)Nc3cc(F)ccc3C)o2)cc1 37.2%
COc1ccc(Cn2c(C(=O)O)c(CNCc3ccc(OC)cc3OC)c3ccc(C)cc32)cc1 4.42%
COc1ccc(NC(=O)CSCc2cc(=O)c3cc(C)ccc3[nH]2)cc1 4.06%
Fc1ccc(CNCCCSc2nnnn2-c2ccccc2)cc1 -24.4%
COc1ncnc(NS(=O)(=O)c2ccc(N)cc2)c1OC -7.79%
CC(=O)OCC(=O)[C@@]1(O)[C@H](C)C[C@H]2[C@@H]3CCC4=CC(=O)C=C[C@]4(C)[C@@]3(F)[C@@H](O)C[C@@]21C 3.52%
CN(C(=O)CSc1nc2ccc(NC(=O)c3cccc(F)c3)cc2s1)c1ccccc1 20.2%
CCOc1ccc(CNC(=O)c2ccc3c(Cl)c4c(nc3c2)CCCC4)cc1 -1.01%
COc1cc(Cl)c(C)cc1NC(=O)CC1Oc2ccccc2NC1=O (configuration not stated) -0.993%
O=C(Oc1ccccc1)c1ccccc1O 2.59%
CCC(C(=O)O)c1ccc(N2Cc3ccccc3C2=O)cc1 (configuration not stated) 16%
CCNC(=O)CCCN1C(=O)CCn2nc(-c3cccn3C)cc21 -12.8%
COc1ccc(NC(=O)c2c(NCc3ccc(C)o3)sc3c2CCCCC3)c(OC)c1 -11.9%
COc1ccc(C(=O)Nc2ccc(-c3nc4ncccc4o3)cc2C)cc1Br 11%
CCn1c(=O)c2cc(C(=O)Nc3cccc(C(F)(F)F)c3)sc2c2ccccc21 -8.16%
CCC(Sc1nc2nccnc2c(=O)n1Cc1ccccc1Cl)C(=O)NC1CCCCC1 (configuration not stated) -50.5%
O=S(=O)(c1ccc(C2CCCCC2)cc1)N1CCN(c2cc(Cl)ccc2Cl)CC1 -7.47%
COc1ccc(-n2c(/C=C/c3cccc4ccccc34)nc3ccccc3c2=O)cc1OC -11.1%
Cc1ccc2nc(NCc3ccccc3)c3nncn3c2c1 -2.97%
CCn1cc(C(=O)NCCc2ccc(Cl)cc2)c(=O)c2cc(S(=O)(=O)N(C)C3CCCCC3)ccc21 -0.295%
Cc1ccc(CNC(=O)CSCc2ccccc2C)cc1 -14.4%
COc1ccc(CCNC(=O)c2ccc3c(c2)CCN3S(=O)(=O)c2ccccc2)cc1 -8.59%
CCOc1cc(CNC(=O)c2cc(-c3ccccc3)n[nH]2)cc(OCC)c1OCC -13.1%
COc1ccc(-c2noc(N3CCC(C(=O)Nc4cccc(C)c4C)CC3)n2)cc1 -13.8%
CCc1ccc(NC(=O)CSc2nc3nc(C)cc(C)n3n2)cc1 38.2%
CCOc1cc(C(c2c(C)[nH]n(-c3ccccc3)c2=O)c2c(C)[nH]n(-c3ccccc3)c2=O)ccc1O 9.61%
O=C(CN1C(=O)C2(SCC(=O)N2c2ccc(F)c(F)c2)c2ccccc21)NCCc1ccccc1 (configuration not stated) -11.3%
COc1ccc(N2CCN(C(=O)c3cc4c(=O)n(Cc5cccnc5)ccc4nc3C)CC2)cc1 -11.7%
COc1ccc(CCNC(=O)c2cnn(-c3ccc(F)cc3)c2C2CCN(C(=O)OC(C)(C)C)CC2)cc1OC -13.2%
COc1ccc(NC(=O)c2oc3ccc(S(=O)(=O)N4CCOCC4)cc3c2C)c(OC)c1 -9.81%
CC(Oc1ccccc1)C(=O)Nc1ccc(C(=O)OCc2cc(=O)n3nc(C(C)C)sc3n2)cc1 (configuration not stated) -7.31%
Cc1[nH]c2ccc(C(=O)N3CCN(c4ccccc4F)CC3)cc2c1C -0.393%
CCN(CC)S(=O)(=O)c1ccc(NC(=O)Cn2ncc3c([nH]c4ccccc43)c2=O)cc1 -14.3%
CCOc1ccc(/C=C/c2nc(C#N)c(N3CCN(CC)CC3)o2)cc1 -7.23%
O=C(NCCc1ccc(F)cc1)C(=O)NCC(c1ccco1)S(=O)(=O)c1ccccc1 (configuration not stated) 12.8%
Cc1cc(C)cc(OCC(=O)Nc2nc(-c3ccc(F)cc3)ns2)c1 4.54%
Cc1ccccc1NC(=O)CSc1c(C(C)C)cnc2c1c(=O)n(C)c(=O)n2C -6.33%
Cc1cc(F)ccc1NC(=O)c1csc2c1CCC(C)C2 (configuration not stated) -5.72%
COC(=O)c1cc(NS(=O)(=O)c2ccc3c(c2)OCCO3)ccc1Cl 18.4%
CCOc1ccccc1NC(=O)CSc1nc2ccccc2nc1N1CCOCC1 -33.6%
O=C(Cn1c(=O)n(-c2ccccc2)c(=O)c2c3c(sc21)CCC3)c1ccc(F)cc1 -10.5%
Cc1c(Cl)cccc1-n1ncc(C(=O)NCCN2CCN(C)CC2)c1C1CCN(C(=O)OC(C)(C)C)CC1 -6.68%
CC(=O)O[C@H]1C(=O)[C@@]2(C)C([C@H](OC(=O)c3ccccc3)[C@]3(O)C[C@H](OC(=O)[C@H](O)[C@@H](NC(=O)c4ccccc4)c4ccccc4)C(C)=C1C3(C)C)[C@]1(OC(C)=O)CO[C@@H]1C[C@@H]2O (some centres not stated) -6.49%
O=C(NCc1ccccc1)c1ccc2c(c1)N(Cc1ccccc1F)C(=O)c1ccccc1S2=O (configuration not stated) -25.6%
COc1ccc(C(=O)CC(=O)c2ccc(C(C)(C)C)cc2)cc1 -12.2%
Cc1ccc(C2CC(=O)n3nc(-c4ccc(Cl)cc4)nc3S2)cc1 (configuration not stated) -2.66%
COc1cccc(CN(C(=O)COc2ccc(Cl)c(C)c2)C2CCS(=O)(=O)C2)c1 (configuration not stated) -10.9%
